# Measured values: the supplement of paper PMC3334620
# Whole data set: some 33,000 sequences, median “E-score (-0.5 to 0.5)” near -0.013, cut for the highest 2% near 0.3. Some of the results follow.
# Biological target: T1, Msn1 (UniProt P22148)
# T1 sequence: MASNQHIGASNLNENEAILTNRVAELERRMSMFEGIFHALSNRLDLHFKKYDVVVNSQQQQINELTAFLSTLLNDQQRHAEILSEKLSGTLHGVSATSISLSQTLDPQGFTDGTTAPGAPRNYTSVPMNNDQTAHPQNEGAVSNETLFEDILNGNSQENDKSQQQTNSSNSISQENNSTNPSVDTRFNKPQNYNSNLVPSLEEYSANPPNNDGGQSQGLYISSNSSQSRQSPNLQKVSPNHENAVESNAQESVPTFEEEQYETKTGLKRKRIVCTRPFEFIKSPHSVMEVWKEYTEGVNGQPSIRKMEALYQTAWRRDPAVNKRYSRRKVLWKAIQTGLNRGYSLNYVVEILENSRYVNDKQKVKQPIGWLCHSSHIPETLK
# Test: PBM E-score (8-mer binding enrichment) (E-score (-0.5 to 0.5)); higher = stronger / more preferred TF binding; most listed sequences are background and not binding sites
# Details: protein concentration: 200 nM; construct: GST-full length
# How it was run: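 PURExpress in vitro transcription/translation supplied GST-tagged yeast transcription factors, either full-length or DNA-binding domain. Applied at about 100-200 nM to universal all-10-mer Agilent arrays double-stranded by primer extension, the bound protein was detected with fluorescent anti-GST. E-scores, modified Wilcoxon-Mann-Whitney statistics, were given by the Universal PBM Analysis Suite to ungapped eight-base words pooled with their reverse complements after masliner normalisation.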
row,Sequence,PBM E-score
1,CTGTGATA,-0.0746
2,ATCCGAAT,0.309
3,CGAAACTC,-0.201
4,ATAGACTG,0.0474
5,AGCAGGAA,0.0466
6,CCGGAACG,0.0578
7,AAGGATCT,-0.108
8,GGCGGTTA,-0.127
9,GCTCGTAC,-0.046
10,ACCGATTC,-0.0811
11,GCAAGAGA,-0.0797
12,AGTCAGGC,0.0431
13,GAATCATC,-0.11
14,CATCTGAA,0.00381
15,CGTCGTCA,-0.0897
16,TCGAACCA,0.0428
17,AAAGGAGA,-0.198
18,GCTTGACC,-0.0457
19,GGAAGCGA,-0.113
20,ACCGGCTA,0.0382
21,AAGGATAA,-0.0799
22,AGAAACGC,-0.16
23,ATGTCCGG,0.457
24,AAAGACTC,-0.134
25,GTGTTAAA,0.0297

row,Sequence,PBM E-score
1,ATATTAGA,0.247
2,CCATGCCG,0.0951
3,GGCAGGTA,-0.127
4,CCAAGGTA,-0.106
5,AGATATAC,0.055
6,AATGGAGG,-0.158
7,ATAGAGCC,-0.088
8,ACAGGAGG,-0.178
9,GCGACGGA,-0.0163
10,AAGGACAG,0.296
11,ATATCGTA,-0.112
12,GTTAGGTA,0.0357
13,CTGCGAAC,-0.0168
14,GTCTTCCA,-0.0761
15,ATAATTAC,0.168
16,ACGATAAT,0.0524
17,ACATAATG,0.256
18,GCACGTAA,-0.02
19,CGCTATAG,0.0146
20,ATCCGCAG,0.199
21,ACAACTAC,0.0351
22,GTAGTAAA,-2e-05
23,GGGGCCTA,-0.42
24,CTATCAAG,0.0621
25,GTCTTCAC,0.0473

row,Sequence,PBM E-score
1,AGCAAATC,0.0188
2,GGAGAGGA,-0.174
3,TAAATGTA,0.208
4,GAGGGTTA,-0.242
5,AGGGTCAC,-0.112
6,CCAATCCG,0.0273
7,CCCCGCAC,-0.103
8,AATGTAAC,-0.00877
9,AAATCTCA,0.126
10,CAGAATAC,0.0673
11,TGACCGCA,-0.0491
12,ATCTAGAC,0.0965
13,CTCGAAGA,-0.141
14,GACTTCCA,-0.0659
15,CATCTCAA,0.0838
16,GTCTGAGA,0.0529
17,CGAGTGAA,-0.071
18,CGTCTGCA,0.0663
19,GAAATGTA,0.245
20,CGCTCAGC,-0.0937
21,AAACGCCT,-0.0244
22,CAGATACG,0.00031
23,AGATATGA,0.152
24,GATCGTGA,-0.0123
25,CCACGTCA,-0.0688

row,Sequence,PBM E-score
1,AGATGTTA,-0.065
2,TGAATTCA,0.124
3,GGACATCA,0.396
4,AAAAAGTT,0.188
5,CCTACCTA,-0.129
6,AAAGCCGA,-0.101
7,CCGTGGGA,-0.0721
8,CAGAGCCC,-0.136
9,ACCCAGCC,-0.287
10,CATGATCC,-0.0855
11,GCGCCGAA,0.118
12,GGCGGTCA,-0.164
13,TAGTTAAA,0.143
14,GAGGGTCC,-0.226
15,AACTCATG,0.0668
16,ACGGCACG,0.0941
17,CGTATGTA,0.148
18,TACTCACA,-0.188
19,AATTGCAG,0.011
20,TTGCCCAA,0.0514
21,GTCGAGAC,0.0308
22,CGTCGTAG,-0.00158
23,CGAGCGAA,-0.00032
24,CTGAACTA,-0.083
25,CCTTGACC,-0.045

row,Sequence,PBM E-score
1,GGCGAGAA,0.0249
2,AGTCCGTG,-0.0088
3,GCCGTGTA,0.0282
4,CGCCCATA,-0.064
5,TAGTCAGA,0.0398
6,ATTGATAC,0.17
7,CACATAAA,0.137
8,CAACACTC,-0.105
9,GGTGTGAC,-0.0466
10,CATTCTCG,0.0388
11,CCATGGGC,-0.0729
12,GAGTCAAA,-0.165
13,AGCTAAGA,-0.103
14,ACTGTTGC,0.0443
15,GCCGACCC,-0.209
16,ACGTCATC,-0.0638
17,ATGGGCTC,-0.107
18,ACTCCGAT,-0.0147
19,CGATCTAG,-0.0912
20,AGACCTTG,-0.194
21,AAACCTCC,-0.213
22,AGTTCTGC,-0.111
23,ACTAATAA,0.244
24,CGCGTACG,0.106
25,AGACTTCG,-0.0572

row,Sequence,PBM E-score
1,ACCCCCAA,-0.17
2,ACGCCTAA,0.00941
3,CGTGAGTC,-0.0898
4,GCTACGGA,-0.0385
5,CAACACGC,-0.194
6,CGCCCATC,-0.295
7,AACAAAGA,0.139
8,AAACAGCA,0.105
9,CTGTGCGA,0.00465
10,CTGGAGTA,-0.136
11,AAAGCGCG,0.043
12,AAGTCTGC,0.0784
13,TGTTTCAA,0.194
14,ATTTCCGA,0.227
15,CTAGACCC,-0.164
16,GCAATATA,-0.0426
17,AAGCACAC,-0.151
18,CTATCGGA,0.194
19,ATCCCGGC,0.19
20,CAGGCTGG,-0.241
21,CTAATCCC,-0.114
22,CGACACGC,0.0622
23,ATGATGGA,-0.0021
24,ATCGATCG,0.115
25,AATAGCTC,-0.0965

row,Sequence,PBM E-score
1,ATCAGCGA,-0.127
2,CTTATGGA,-0.0483
3,GGTCATAC,-0.0778
4,GCCCCTCA,-0.308
5,AACGTGAA,0.0519
6,CCAATAAC,0.153
7,CTTACTGC,-0.143
8,GTTATCAA,-0.0295
9,ACCGCGAA,0.039
10,GCGACGTA,0.00383
11,CATACCCC,-0.0714
12,ACCGGCTG,-0.269
13,CAAGCTTC,0.057
14,ACGGAACA,0.0245
15,AGTCTGTA,-0.064
16,ATAGACCC,-0.0646
17,CAGTCGAC,0.108
18,GATGAAGA,-0.174
19,GGCTCCAA,-0.153
20,AGAGTGGC,-0.116
21,ATCGCATC,-0.118
22,GAGCCCGC,-0.245
